{"source": "ChEMBL document CHEMBL1201862", "about": "“PubChem BioAssay data set” (2004)", "note": "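These data come from cells grown in 96-well plates and exposed to compound for 48 hours at five concentrations. GI50: concentration for 50% inhibition of growth.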 The source made the active and inactive calls. Cut-off read from the data, not from the text of the source: active = GI50 up to about 1.1 µM and inactive = higher. Peptide text beside a SMILES is read from it."}
{"system": "NCI-H322M", "test": "growth of human tumour cells (NCI), 48 h"}
{"smiles": "Cc1c2c(n3c(nc4ccccc43)c1C#N)NCC2", "GI50": "inactive: > 10 µM"}
{"smiles": "CC(C)(C)C1CC[C@H](O)[C@H]([C@H](O)CC2CC(=O)N(c3ccccc3)C(=O)C2)C1", "note": "(stereo partly drawn)", "GI50": "inactive: > 100 µM"}
{"smiles": "CCOP(=O)(OCC)/C(C#N)=C/c1cc(O)ccc1O", "GI50": "inactive: > 100 µM"}
{"smiles": "N#CC(Cc1ccccc1)N(CCC1=CCCCC1)C(c1ccccc1)c1ccccc1", "note": "(stereo not drawn)", "GI50": "inactive: > 100 µM"}
{"smiles": "C=CN(C=C)C(=O)Cn1cc(-c2ccccc2)nn1", "GI50": "inactive: > 100 µM"}
{"smiles": "COC(=O)c1ccc(C)cc1CC1Cc2c(C)cccc2C1=O", "note": "(stereo not drawn)", "GI50": "inactive: 32.7 µM"}
{"smiles": "CCn1c(CCl)nc2c1C(=O)c1ccccc1C2=O", "GI50": "inactive: 3.48 µM"}
{"smiles": "C[n+]1cccc(/C=C/c2ccc3cccc(O)c3n2)c1", "GI50": "inactive: > 100 µM"}
{"smiles": "COc1ccc(N(C)Sc2ccccc2)cc1", "GI50": "inactive: > 100 µM"}
{"smiles": "O=C(/C=C/c1ccc(O)c(O)c1)O[C@H]1CCCC[C@@H]1OC(=O)/C=C/c1ccc(O)c(O)c1", "GI50": "inactive: 18.7 µM"}
{"smiles": "CCCc1cc(O)c2c(C)c3[nH]c4ccc(Cl)cc4c3c(C)c2n1", "GI50": "inactive: 16.8 µM"}
{"smiles": "CC(C)N(C(=O)C12C3C4C5(C#N)C3C1(I)C5C42I)C(C)C", "note": "(stereo not drawn)", "GI50": "inactive: > 100 µM"}
{"smiles": "COc1cc([C@@H]2c3cc4c(cc3[C@@H](/N=C/c3ccc(C(=O)O[C@@H](C(=O)O[C@H]5C[C@@]6(O)[C@@H](OC(=O)c7ccccc7)[C@@H]7[C@]8(OC(C)=O)CO[C@@H]8C[C@H](O)[C@@]7(C)C(=O)[C@H](OC(C)=O)C(=C5C)C6(C)C)[C@@H](NC(=O)c5ccccc5)c5ccccc5)cc3)[C@H]3COC(=O)[C@H]23)OCO4)cc(OC)c1O", "GI50": "active: 0.0476 µM"}
{"smiles": "C[Si](C)(C)C#CCOC=C1CC1", "GI50": "inactive: > 100 µM"}
{"smiles": "O=S(=O)(c1ccccc1)C1CC(c2nc3ccccc3[nH]2)=NO1", "note": "(stereo not drawn)", "GI50": "inactive: > 100 µM"}
{"smiles": "COc1cccc(C(=O)O[C@H]2[C@@H]3[C@]4(OC(C)=O)CO[C@@H]4C[C@H](O)[C@@]3(C)C(=O)[C@H](OC(C)=O)C3=C(C)[C@@H](OC(=O)[C@H](O)[C@@H](NC(=O)OC(C)(C)C)c4ccco4)C[C@]2(O)C3(C)C)c1", "GI50": "active: < 0.00375 µM"}
{"smiles": "C=CCOc1ccc(C(/N=N\\c2ccc(Cl)cc2)=N/NC(=O)c2ccccc2)cc1OC", "GI50": "inactive: > 100 µM"}
{"smiles": "C=C(NC(=O)C(=C)NC(=O)c1ccc2c(n1)-c1coc(n1)C(=C)NC(=O)C(=C)NC(=O)c1nc(oc1C)C(=C)NC(=O)C(C(C)(C)O)NC(=O)C(=C)NC(=O)c1coc(n1)/C(=C/C)NC(=O)[C@H]([C@@H](C)O)NC(=O)c1csc-2n1)C(N)=O", "note": "(stereo partly drawn)", "GI50": "inactive: 78.2 µM"}
{"smiles": "N#Cc1cc(N(CCCl)CCCl)c([N+](=O)[O-])cc1[N+](=O)[O-]", "GI50": "inactive: > 100 µM"}
{"smiles": "CC(N)/C(N)=N/O", "note": "(stereo not drawn)", "GI50": "inactive: > 100 µM"}
{"smiles": "CC1OC(=O)C2CC3CCCCC3C(/C=C/C3CCCC(C)N3C)C12", "note": "(stereo not drawn)", "GI50": "inactive: > 100 µM"}
{"smiles": "Cc1c2cc[n+](C)c(C)c2cc2c1[nH]c1ccccc12", "GI50": "inactive: 3.86 µM"}
{"smiles": "CC(=O)OCC1OC(n2c(C)c(C(C)=O)c(-c3cccc4ccccc34)c(C#N)c2=S)C(OC(C)=O)C(OC(C)=O)C1OC(C)=O", "note": "(stereo not drawn)", "GI50": "inactive: > 100 µM"}
{"smiles": "CCOC(=O)NC(=O)c1cn(C2OC(COC(=O)CCCCCCCCC(=O)OCC3OC(n4cc(C(=O)NC(=O)OCC)c(=O)[nH]c4=O)C4OC(C)(C)OC34)C3OC(C)(C)OC32)c(=O)[nH]c1=O", "note": "(stereo not drawn)", "GI50": "inactive: > 100 µM"}
{"smiles": "CC(=O)OC1C[C@@H](C)C2(CC(c3ccoc3)OC2=O)C2CCC(O)C3(CO3)C12CO", "note": "(stereo partly drawn)", "GI50": "inactive: > 100 µM"}
{"smiles": "COc1cc2c(c(OC)c1)C(C)=NC(C)C2", "note": "(stereo not drawn)", "GI50": "inactive: > 100 µM"}
{"smiles": "CC(C)C1=Cc2ccc3c(c2C(=O)C1=O)CCCC3(C)C", "note": "[MILTIRONE]", "GI50": "inactive: 15.5 µM"}
{"smiles": "O=c1ccc2ccc(S)cc2o1", "GI50": "inactive: > 100 µM"}
{"smiles": "O=C(c1ccccn1)c1nc(-c2ccc(Cl)c(Cl)c2)nc2ccc(Cl)cc12", "GI50": "inactive: > 100 µM"}
{"smiles": "Cc1cccc(C)c1NC(=O)/C(CC(=O)CC(c1ccccc1)c1c(O)c2ccccc2oc1=O)=N/O", "note": "(stereo not drawn)", "GI50": "inactive: > 100 µM"}
{"smiles": "COc1ccc(CN2C(=O)C(Cc3cc(OC)c(OC)c(C)c3OC)NC(=O)/C2=C/c2cc(OC)c(OC)c(C)c2OC)cc1", "note": "(stereo not drawn)", "GI50": "inactive: > 100 µM"}
{"smiles": "O=C1NC(=O)/C(=N\\c2cccc3c(=O)[nH][nH]c(=O)c23)C(c2nc3ccccc3s2)C1=O", "note": "(stereo not drawn)", "GI50": "inactive: > 100 µM"}
{"smiles": "CC(C)(C)c1cc2c3c(c1)C(C(F)(F)F)(C(F)(F)F)O[Te]3(C)OC2(C(F)(F)F)C(F)(F)F", "GI50": "inactive: > 100 µM"}
{"smiles": "CCCCc1c2c(c(C)c3c1C(=O)OC3)Oc1ccccc1O2", "GI50": "active: 0.935 µM"}
{"smiles": "CC(C)NC(=O)OCc1c(COC(=O)NC(C)C)c(-c2cc[n+](COC(=O)C(C)C)cc2)n2c1CCC2", "GI50": "inactive: > 100 µM"}
{"smiles": "NC(=O)CNC(=O)C1CC(O)CN1C(=O)OCc1ccccc1", "note": "(stereo not drawn) (HELM PEPTIDE1{[O=C(OCc1ccccc1)[*:2]].[O=C(C1CC(O)CN1[*:1])[*:2]].G.[am]}$$$$V2.0)", "GI50": "inactive: > 100 µM"}
{"smiles": "C=C(CCOC)CCC1CCCCC(=C)[C@H]1OC(C)=O", "note": "(stereo partly drawn)", "GI50": "inactive: > 100 µM"}
{"smiles": "COc1cccc(NC(=O)CC(=O)N2N=C(C)C(/N=N/c3ccc(C(=O)O)cc3)C2=O)c1", "note": "(stereo not drawn)", "GI50": "inactive: > 100 µM"}
{"smiles": "O=C1C[C@H](Sc2ccccc2)C2(OCCO2)[C@@H](Sc2ccccc2)C1", "GI50": "inactive: 6.14 µM"}
{"smiles": "Cc1ccc(NC(=O)CC/C(CC(=O)C(C)(C)C)=N\\NC(=O)C[n+]2ccccc2)cc1C", "GI50": "inactive: > 100 µM"}
{"smiles": "C=C1C[C@H]2C=Nc3cc(OCCCOc4cc5c(cc4OC)C(=O)N4CC(=C)C[C@H]4C=N5)c(OC)cc3C(=O)N2C1", "note": "[SJG-136]", "GI50": "active: 0.0299 µM"}
{"smiles": "O=[N+]([O-])C(=C/c1cccc2ccccc12)/C(=C\\c1cccc2ccccc12)[N+](=O)[O-]", "GI50": "inactive: 9.25 µM"}
{"smiles": "COc1cccc(C2SCc3nc4ccccc4n32)c1", "note": "(stereo not drawn)", "GI50": "inactive: > 100 µM"}
{"smiles": "COC(=O)c1cc(C)c(C)c2c1NC(=O)CNC2=O", "GI50": "inactive: > 100 µM"}
{"smiles": "CC(=C\\c1ccccc1)/C=C(\\C#N)C(N)=O", "GI50": "inactive: > 10 µM"}
{"smiles": "O=C1NC(=S)NC(=O)C1C(c1ccccc1[N+](=O)[O-])C1C(=O)NC(=S)NC1=O.c1ccncc1", "GI50": "inactive: > 100 µM"}
{"smiles": "c1ccc2c3c([nH]c2c1)C1c2[nH]c4ccccc4c2CCN1CC3", "GI50": "inactive: 2.58 µM"}
{"smiles": "CC/C(SC)=[N+](\\C)[O-]", "GI50": "inactive: > 100 µM"}
{"smiles": "Cn1c2cc(O)cc(O)c2c(=O)c2c([N+](=O)[O-])cccc21", "GI50": "inactive: > 100 µM"}
{"smiles": "c1ccc([P+](CCSCCSCC[P+](c2ccccc2)(c2ccccc2)c2ccccc2)(c2ccccc2)c2ccccc2)cc1", "GI50": "inactive: > 100 µM"}
{"smiles": "CC1=C([S+]([O-])c2ccc(C)cc2)CCC2(CCCCO2)O1", "note": "(stereo not drawn)", "GI50": "inactive: > 100 µM"}
{"smiles": "CN1CCCN(C)C1c1cc([N+](=O)[O-])ccc1O", "GI50": "inactive: 37.7 µM"}
{"smiles": "c1ccc2c(c1)Sc1ccccc1N2C1CN2CCC1CC2", "note": "(stereo not drawn)", "GI50": "inactive: 16.5 µM"}
{"smiles": "CCc1cccc(CC)c1Nc1nc2c(s1)C(=O)c1ccccc1C2=O", "GI50": "inactive: 18 µM"}
{"smiles": "COc1ccc(/C=N/NC(=O)CSc2nc(-c3ccccc3)c(-c3ccccc3)[nH]2)cc1OC", "GI50": "inactive: 32.2 µM"}
{"smiles": "COc1cc(OC)c2c(c1)C(=O)C(CC(C)O)=CC2=O", "note": "(stereo not drawn)", "GI50": "inactive: 17.5 µM"}
{"smiles": "CC(C)=C1C(=O)C[C@]2(C)C/C=C(\\C)CC/C=C(\\C)CC[C@@H]12", "GI50": "inactive: 15.2 µM"}
{"smiles": "O=C(c1ccccc1)N1CCN(C(=S)N(C(=O)c2ccccc2)c2ccccc2)C1=S", "GI50": "inactive: 13.1 µM"}
